# The whole screen tested about 360,000 compounds, of which about 6,000 (1.7%) were called active. The inconclusive results got no clear call from the source; some entries with a clear call stand among them for comparison. Calls come from the whole dose curve; as a rule, active = well fitted cell-killing curve with a large enough effect; inconclusive = small, poorly fitted or top-dose-only effect, or effect the other way; inactive = flat fitted curve, though single readings scatter. Potencies of inconclusive entries are left out as doubtful fits.
# Experiment: qHTS for induction of synthetic lethality in tumor cells producing 2HG: qHTS for the HT-1080-NT fibrosarcoma cell line;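 note: NT is the 2HG producing partner of a matched IDH1 knockdown line; nearly all actives have a fitted effect of over 55% in size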;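 for activity, negative = less viability: 0% = DMSO-treated cells and -100% = media-only wells without cells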
# Settings: HT-1080-NT fibrosarcoma viability, CellTiter-Glo ATP luminescence, 48 h; activity, negative = less viability: at 46.1 µM (top of the series) unless noted
# Summary of the method: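 Viability of the 2HG-overproducing fibrosarcoma line after 48 hours of compound exposure at 37 degrees C was determined by luminescence with CellTiter-Glo, and concentration-effect curves were then fitted and categorized.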
# Potency is the fitted concentration of half-maximal effect; tags give direction and shape of the fitted curve.
SMILES,"activity, negative = less viability",Potency
Cc1cc(C)nc(NC(=O)Nc2ccc(F)cc2F)n1,inactive: 29.4%,
C=CCn1c(=NC(=O)c2sc3ccccc3c2Cl)sc2cc(S(N)(=O)=O)ccc21,,"inconclusive [cytotoxic, single point]"
CC(C)n1c(-c2ccccc2F)n[nH]c1=S,,"inconclusive [cytotoxic, single point]"
Cc1ccc(S(=O)(=O)CCC(=O)N2CCN(c3ccccc3F)CC2)cc1,inactive: 18.1%,
Cc1oc2c(cc(NS(=O)(=O)c3ccc(Cl)cc3)c3ccccc32)c1C(=O)O,inactive: -25.4%,
O=C1[C@H]2[C@@H](c3ccc(C(F)(F)F)cc3)N[C@]3(CCCN(Cc4ccco4)C3=O)[C@H]2C(=O)N1Cc1ccccc1,inactive: 9.91%,
CC(=O)c1cccc(NC(=O)CNC(=O)c2cc3ccccc3o2)c1,,"inconclusive [rising, partial curve]"
CCC(=O)c1ccc(N2CCN(C(=O)c3ccccc3F)CC2)c(F)c1,inactive: -2.23%,
CCN1C(=O)[C@H]2[C@@H](c3ccc(-c4ccc(F)cc4)cc3)N[C@@](C)(C(=O)OC)[C@H]2C1=O,,"inconclusive [rising, partial curve]"
O=C(CN1c2ccccc2Sc2ccccc21)NNC(=O)Nc1ccc(Cl)cc1,,active: 23.1 µM
CCNc1c(NC(=O)C2CCC(C)CC2)c(=O)oc2ccccc12 (stereo not given),inactive: -1.26%,
COc1cc(/C=N/NC(=O)C(C)Nc2n[nH]c(=O)[nH]c2=O)ccc1O (stereo not given),,"inconclusive [rising, single point]"
COc1ccc(C(=O)NC(CCSC)C(=O)NCc2nnc3ccccn23)cc1 (stereo not given),inactive: 7.11%,
CCCC(=O)N1CCC1(C)C(=O)Nc1ncc(C(=O)OC)s1 (stereo not given),,"inconclusive [rising, full curve, poor fit]"
CC(=O)Nc1ccc(NC(=O)C(=O)NCC(c2ccco2)N2CCc3ccccc32)cc1 (stereo not given),,"inconclusive [cytotoxic, single point]"
CN1CCN(NC(=O)c2cn(-c3ccccc3)nc2-c2cccc(Br)c2)CC1,,"inconclusive [cytotoxic, single point]"
Cc1ccc(Nc2[nH]c(=O)c3ccccc3c2C(=O)c2ccccc2)cc1,inactive: 9.49%,
O=[N+]([O-])c1cc(CN2CCCC2)c2cccnc2c1O,,active: 16.4 µM
CCOc1ccc2[nH]c(=O)c(CN(Cc3ccco3)C(CC)c3nnnn3Cc3ccccc3)cc2c1 (stereo not given),inactive: -24.3%,
CC(Oc1ccccc1)C(=O)N1CCC2(CC1)Oc1ccc(F)cc1C(=O)C21CC(c2cccnc2)=NO1 (stereo not given),,"inconclusive [cytotoxic, single point]"
Cc1cc(N/N=C/c2ccccc2)nc(NCc2ccccc2)n1,inactive: -19.9%,
CCOc1ccc(Cl)cc1C1=CC(=O)C[C@H](c2ccc(OC)cc2)C1,,active: 2.06 µM
Cc1cccc(N2CCN(C(=O)C3CC(=O)N(c4ccc5c(c4)OCCO5)C3)CC2C)c1 (stereo not given),,"inconclusive [cytotoxic, single point]"

SMILES,"activity, negative = less viability",Potency
O=C(NNC(=S)Nc1cccc(C(F)(F)F)c1)c1cccc(Cl)c1,,"inconclusive [cytotoxic, single point]"
CCCCc1ccc(NC(=O)CSc2nc(=O)n(CCN(CC)CC)c3c2CCCC3)cc1,inconclusive: -34.7% [cytotoxic],
Cc1ccc2nc3c(cc2c1)c(NC(=O)c1ccco1)nn3CC(C)C,inactive: 11.6%,
Cc1cc(C)cc(NS(=O)(=O)c2ccc(Oc3ncc(C(F)(F)F)cc3Cl)cc2)c1,,active: 23.1 µM
COc1cccc(/C=C2\SC(=S)N(CCC(=O)NC3C=CS(=O)(=O)C3)C2=O)c1 (stereo not given),,active: 16.4 µM
COC(=O)C(=C/C(C)=C/c1cccs1)C(=O)OC,,"inconclusive [cytotoxic, partial curve, poor fit]"
COc1ccc(NC(=O)CC2SC(=O)NC2=O)cc1 (stereo not given),inactive: 13.5%,
CCOC(=O)C1=C(C)NC2=C(C(=O)CCC2)C1c1cn(Cc2ccc(Cl)cc2Cl)nc1-c1ccccc1 (stereo not given),,"inconclusive [cytotoxic, single point]"
CCc1n[nH]c(=S)n1/N=C/c1ccc(-c2ccc(Br)cc2)o1,,"inconclusive [cytotoxic, single point]"
Cc1cc(C)cc(NC(=O)c2cc(S(=O)(=O)NCc3ccco3)ccc2F)c1,,"inconclusive [cytotoxic, single point]"
CC(C)(C)OC(=O)N1CCN(C(=O)c2[nH]cnc2C(=O)Nc2nccs2)CC1,,"inconclusive [rising, single point]"
CC1C(=O)CC(c2ccc([N+](=O)[O-])cc2)NC1c1ccc([N+](=O)[O-])cc1 (stereo not given),,"inconclusive [cytotoxic, single point]"
COCCNC(=O)CSc1nc2ccccc2c(=O)n1CCCC(=O)NCc1ccccc1,inactive: -0.756%,
CC1C(=O)N(Cc2cn(CCC3OCCCO3)nn2)CCS(=O)(=O)N1Cc1ccc(-c2ccc(Cl)cc2)cc1 (stereo not given),,"inconclusive [cytotoxic, single point]"
COc1ccc(Cc2c(C(C)(C)C)nc3ccc(Cl)cn23)c(C)c1,,"inconclusive [cytotoxic, single point]"
COCCNc1nc(Nc2ccccc2Cl)c2sccc2n1,,"inconclusive [cytotoxic, single point]"
O=C(Nc1ccc(N2CCCC2)cc1)c1ccccc1F,inactive: -18.9%,
Cc1ccc(NC(=O)COc2cccc(-n3cnnn3)c2)cc1[N+](=O)[O-],inactive: -5.76%,
COc1ccc([N+](=O)[O-])cc1COc1cc(C)cc2oc(=O)cc(-c3ccccc3)c12,,"inconclusive [cytotoxic, single point]"
CCOC(=O)C1CCN(c2ccc(-c3cccs3)nn2)CC1,,"inconclusive [cytotoxic, single point]"
Cc1cc(C)cc(-n2c(C)cc(/C=N/NC(=O)CSc3ncccn3)c2C)c1,,"inconclusive [cytotoxic, partial curve]"
CC1CCc2c(sc3[nH]c(=S)n(C)c(=O)c23)C1 (stereo not given),inactive: -5.56%,

# Reference: PubChem BioAssay AID686970 (National Center for Advancing Translational Sciences (NCATS), 2013)
